Data as given in the BET-seq Pho4 binding data (Le et al. 2018).
Some of the results follow. The energies were worked out here from pooled read counts, against the library average; single values are noisy.

These sequences were tested against T1, Pho4 (S. cerevisiae) (UniProt P07270) (assay: relative binding free energy (BET-seq); higher = weaker binding). Conditions: reference: library average.
T1 sequence: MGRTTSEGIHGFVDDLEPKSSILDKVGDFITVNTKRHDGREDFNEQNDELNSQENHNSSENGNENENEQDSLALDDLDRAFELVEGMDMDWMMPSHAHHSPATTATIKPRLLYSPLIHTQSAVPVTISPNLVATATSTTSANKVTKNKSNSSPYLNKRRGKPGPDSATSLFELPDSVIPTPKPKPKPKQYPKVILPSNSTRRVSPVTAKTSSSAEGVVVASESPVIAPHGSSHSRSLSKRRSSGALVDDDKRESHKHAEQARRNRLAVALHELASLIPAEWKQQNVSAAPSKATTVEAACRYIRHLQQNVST

Relative binding free energy, -0.09 kcal/mol:
TGATGCACGTGTTTCT
ATGAACACGTGTGTGT

Relative binding free energy, -0.21 kcal/mol:
CTGTGCACGTGGTGTC
TGGCGCACGTGGGGAC

Relative binding free energy, -0.12 kcal/mol:
TAGGGCACGTGTGGAC
TATCGCACGTGCGGGT

Relative binding free energy, 0.07 kcal/mol:
ATGATCACGTGGTGGA
AGTTGCACGTGTTGAG
CTATACACGTGTGGGG
TTACTCACGTGTTGAT
TTTGGCACGTGTCCGG

Relative binding free energy, 0.18 kcal/mol:
AAGGTCACGTGGTTGG
TGTGGCACGTGTGATT
CTATTCACGTGTGATG
TTTCTCACGTGGTCGG
ATTTTCACGTGGAGGA

Relative binding free energy, 0.16 kcal/mol:
GAGCTCACGTGGGTAG
TTGAACACGTGATTTG
TGCTTCACGTGGGATG
AATTGCACGTGAAGGT
GTTGTCACGTGTATAT
GTTAACACGTGATGAT

Relative binding free energy, -0.25 kcal/mol:
TCCAGCACGTGGGTGT

Relative binding free energy, 0.27 kcal/mol:
GGTAACACGTGAGCAG
TTCTTCACGTGGAGGG
GTCAGCACGTGAATGT

Relative binding free energy, 0.2 kcal/mol:
AAGATCACGTGTGGCT
GTTGGCACGTGAGTTC
GAGGCCACGTGAGGTT

Relative binding free energy, 0.4 kcal/mol:
GGGTTCACGTGCAGGA
CTGGTCACGTGAATAG
GTACTCACGTGATTGT

Relative binding free energy, 0.32 kcal/mol:
AAGTACACGTGAGGTG
TAAGTCACGTGAATAG
TGTCTCACGTGATGCT

Relative binding free energy, 0.02 kcal/mol:
GGGTGCACGTGGATAC
ATTAACACGTGCTGTG
AGTGTCACGTGCGGTG
GTCTCCACGTGTTGTT
ATGGACACGTGTTGGG
TTGGCCACGTGGATAT

Relative binding free energy, -0.22 kcal/mol:
TCGAGCACGTGCGGGG
AGATGCACGTGGTCGT

Relative binding free energy, 0.37 kcal/mol:
GATCTCACGTGCTGGT
GTTTTCACGTGGTTCG
TTAGTCACGTGAAGGA
TGGATCACGTGATGAG

Relative binding free energy, -0.02 kcal/mol:
AGACGCACGTGTTGGG
TGGACCACGTGTGTTG
TTTCACACGTGGTAAT
TCGTGCACGTGGTCTT

Relative binding free energy, 0.12 kcal/mol:
ATAATCACGTGTATGT
GGGCTCACGTGGGCAT
GTGTACACGTGGTAAA
GAAGACACGTGTATGG
GGCTGCACGTGGAGGA

Relative binding free energy, 0.08 kcal/mol:
TAATACACGTGTGGGA
GTTTACACGTGGGAAG
TTGTGCACGTGTGGGG

Relative binding free energy, -0.32 kcal/mol:
AGCGCCACGTGGGGTG

Relative binding free energy, 0.1 kcal/mol:
GTCGTCACGTGGTGTT
TAGAGCACGTGAAGTT
TTGTGCACGTGTTAAC
GTTGTCACGTGTTCAT
GGCGTCACGTGTCGTG
ATGTCCACGTGTTAGT
GGCTGCACGTGCTGGG

Relative binding free energy, 0.19 kcal/mol:
TGTTTCACGTGCATTG
TGGGACACGTGACGGC
AATTTCACGTGGAGGT
GGAGGCACGTGAGGGG
TGCTTCACGTGCGGAT
TCGGTCACGTGTTGTA

Relative binding free energy, 0.01 kcal/mol:
GGGTGCACGTGGACTT
TGTAGCACGTGTCGGT
ATTGTCACGTGTTGTC
GGTTGCACGTGTTGAT
GTATACACGTGGTGGT

Relative binding free energy, -0.24 kcal/mol:
TGAAGCACGTGCGTGT

Relative binding free energy, 0.17 kcal/mol:
ATGGCCACGTGAGGAT
GAGCGCACGTGTGATT
ATAGTCACGTGTGCGA
GCATTCACGTGGTAGG

Relative binding free energy, 0.36 kcal/mol:
GGTTACACGTGTGTTC

Relative binding free energy, 0.24 kcal/mol:
AGTTACACGTGTGATG
AGGGTCACGTGTGTGG

Relative binding free energy, 0.15 kcal/mol:
GGAGGCACGTGAGAAT
GGGTCCACGTGGAGAG
GTTGTCACGTGGTAGC
TGTCTCACGTGTTTCT
GTTGTCACGTGCAAGT
TTGAACACGTGTGTTA

Relative binding free energy, 0.06 kcal/mol:
TGGGACACGTGATTAT
GAATACACGTGTGTTT
GGTGGCACGTGTACCG
TGAGTCACGTGTTATA

Relative binding free energy, -0.15 kcal/mol:
TAAGGCACGTGCAGGT
GTGTGCACGTGGCAGT

Relative binding free energy, -0.2 kcal/mol:
AAAGGCACGTGGCAGG
TGCGGCACGTGGTAGA
TATGGCACGTGGCTGC
TCGGGCACGTGGGAGC

Relative binding free energy, 0.11 kcal/mol:
GCATGCACGTGTGGAA
GGGAGCACGTGAGCGC
TGTTACACGTGTTAGG
TTTGACACGTGTGTTA
AATATCACGTGATGTG

Relative binding free energy, 0.29 kcal/mol:
CACTTCACGTGTTGGG
AATTTCACGTGTGAGT

Relative binding free energy, -0.06 kcal/mol:
TGGGTCACGTGCAGTA
TGCTACACGTGGCGGT

Relative binding free energy, 0.34 kcal/mol:
GGTATCACGTGAGGCG
GTATCCACGTGAAGGG

Relative binding free energy, -0.04 kcal/mol:
TATTGCACGTGTGTCG
TGGTACACGTGGTGGC
TATTACACGTGGGGGG
ATTAGCACGTGTTGTG
TTACGCACGTGTTGGG

Relative binding free energy, -0.07 kcal/mol:
TCTGGCACGTGCGGTT
TATTCCACGTGGTGTG

Relative binding free energy, 0.05 kcal/mol:
TATTGCACGTGATTGA
GGTTACACGTGGCGGC
AATGGCACGTGACGTG
GTATACACGTGTTAAT
GGGCACACGTGGTTAG

Relative binding free energy, -0.03 kcal/mol:
GGTTCCACGTGGCTGG
TAGAGCACGTGTCGAG
ATTATCACGTGGTTAG
GGTAGCACGTGCGGGT
ATAACCACGTGTTTGT
TGCATCACGTGGGAGT
GTGTGCACGTGTATCA
GAAGGCACGTGTTTGG

Relative binding free energy, 0.22 kcal/mol:
AGGTTCACGTGGGCTG
AATTTCACGTGGGTCT
TACCGCACGTGTAGTT

Relative binding free energy, 0.39 kcal/mol:
TTGATCACGTGAGCAG

Relative binding free energy, -0.13 kcal/mol:
GTAGGCACGTGGAGCT
GCAGGCACGTGGTGTA
ATCGGCACGTGTCTGT
GTTGGCACGTGCCGCG

Relative binding free energy, 0.38 kcal/mol:
GATATCACGTGAGAGT

Relative binding free energy, 0.14 kcal/mol:
TCGAGCACGTGAGGTA
AATAGCACGTGATGAT
TGTCTCACGTGTATGG

Relative binding free energy, -0.11 kcal/mol:
ATGAGCACGTGTTAGT
TGGCGCACGTGGGACT

Relative binding free energy, 0 kcal/mol:
CTGGACACGTGGAGGG
TTTTGCACGTGGGTTG
TTGGTCACGTGCGCTG
CGTGTCACGTGGGAGC
TGTGACACGTGATATA
TTGGACACGTGGCTGG
TAGGCCACGTGATGGT
GAGTGCACGTGGTGGC
AGCGTCACGTGTTGAT
TAGTACACGTGGTGGC
TATTGCACGTGTTAAT

Relative binding free energy, 0.49 kcal/mol:
TTGTTCACGTGAGGGG

Relative binding free energy, 0.21 kcal/mol:
GCTTTCACGTGGTGTT
TGGGGCACGTGAGTTC
GTCTTCACGTGTTTGA
AATGACACGTGAGAGT
GGGTACACGTGTAAGG
TTCTGCACGTGAGTTT

Relative binding free energy, 0.13 kcal/mol:
TTAATCACGTGTTAAG
GGTGTCACGTGGACGA
GTGATCACGTGTTGTA
GAAGTCACGTGCGGGA

Relative binding free energy, -0.05 kcal/mol:
GGGTCCACGTGGGGTG
AGTGGCACGTGTTTCT
TGGGGCACGTGGAGCA

Relative binding free energy, 0.58 kcal/mol:
TGGATCACGTGAGAGA

Relative binding free energy, 0.09 kcal/mol:
TGTGTCACGTGGTGGC
GTGATCACGTGGGGGA
TGTAACACGTGTTGGC
ATGTGCACGTGTGGAA
TAGATCACGTGGGAGC

Relative binding free energy, -0.19 kcal/mol:
ATCAACACGTGGGGGT
AGTAGCACGTGGCGGT

Relative binding free energy, 0.03 kcal/mol:
ACTGGCACGTGTTGTT
GGATGCACGTGCCAGG
CGTTCCACGTGTATGT

Relative binding free energy, -0.1 kcal/mol:
GGGCGCACGTGGTGGT
GTAAGCACGTGCGTTT
ATTGGCACGTGCGGGC
AGTGACACGTGCGGGT
GTATGCACGTGCTGTA
AAGTGCACGTGGGAGA
TACGGCACGTGATGTG

Relative binding free energy, 0.31 kcal/mol:
GTCGTCACGTGAAGTT
TAATTCACGTGTGCGG
GTGGTCACGTGAGGAC
TGATTCACGTGATTTG
ATTTTCACGTGGACGT
GGGTTCACGTGGTTTA

Relative binding free energy, 0.23 kcal/mol:
CTGGACACGTGAGGGT
GTCTACACGTGTGTAG
TGTTACACGTGACTGG

Relative binding free energy, -0.16 kcal/mol:
TCGAGCACGTGGTTGG
CGTCGCACGTGGCGGT

Relative binding free energy, 0.04 kcal/mol:
TTGAACACGTGGGACG
TGCAGCACGTGATGTG
GTTTACACGTGCAGTG
TTTAACACGTGGGAGT
GGTCACACGTGGGAAG

Relative binding free energy, -0.18 kcal/mol:
TCGGGCACGTGGGTTC
TTTGGCACGTGGTGCG
TGGACCACGTGGGGTC
GGACGCACGTGTAGGG

Relative binding free energy, -0.01 kcal/mol:
ACATGCACGTGGTGCG
TCAGACACGTGTTTTG
TAATACACGTGTTGGA
TTTTACACGTGGGTGG

Relative binding free energy, 0.35 kcal/mol:
TGGTTCACGTGTACGG

Relative binding free energy, 0.54 kcal/mol:
ACGTTCACGTGAGATT
CTGTTCACGTGAGGAC

Relative binding free energy, 0.42 kcal/mol:
GAGTTCACGTGAATGG
CAGTTCACGTGTAAGG

Relative binding free energy, -0.08 kcal/mol:
TTGGTCACGTGCTATA
AAGCGCACGTGTGTTG
AGAAACACGTGGTGGG

Relative binding free energy, 0.33 kcal/mol:
TGCTTCACGTGGACGG
GGGTTCACGTGTTTTG

Relative binding free energy, -0.14 kcal/mol:
GGTTGCACGTGGGCGG
CTGTGCACGTGTTGGC

Relative binding free energy, -0.17 kcal/mol:
TAAAACACGTGGGGTG

Relative binding free energy, 0.28 kcal/mol:
TATTCCACGTGTGAGG
GATGTCACGTGCGATA
GATGACACGTGAGGTT
